Read counts are not given, so values of variants with three or more changes are uncertain.

B1: CPEB3 Ribozyme (parent)
chain: UAACAGGGGGCCACAGCAGAAGCGUUCACGUCGCAGCCCCUGUCAGAUUCUGGUGAAUCUGCGAAUUCUGCUGUAUAUCUC

The variants in this series derive from B1. Briefly: self-cleavage, relative activity (ratio to wild type); higher = more cleavage; in vitro, sequencing. In a few lines: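 Libraries of CPEB3 self-cleaving ribozyme mutants came from rounds of error-prone PCR and carried barcodes, which DNA sequencing matched to variants. In vitro transcription used T7 RNA polymerase at 37°C for 5 hours, with a further 15 min in DNase I before EDTA stopped the reaction; the ribozymes cleaved during both steps. The RNA was reverse transcribed with template switching and sequenced on Illumina. Relative activity is the cleaved/total read fraction of a variant divided by that of the unmutated ribozyme, averaged over three batches with at least 5 reads.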
Turning to UAGCAGGGGGCCACAGCAGAAGCGUUCACGUUGCAGUCCCUGUCAGAUUCUGGAGGAUCUGCGAAUUCCGCUGUAUAUCUC [A3G C32U C37U U54A A56G U69C], the self-cleavage is 0.11.
Next, UAGCAGGGGGCCACAGCAGAAGCGUUCACGUCGCAGCCCUUGUCAGAUCCUGGUGAAUCUGCGAAUUCUGCUGUAUAUCUC [A3G C40U U49C]: 0.71; UAGCAAGGGGCCCCAGCAGAAGGGUUCACGUCGCAGCCCCUGUCAGAUUCUGGUGAAUCUGCGAAUUCCGCUGUAUAACUC [A3G G6A A13C C23G U69C U78A]: 0.11; UAGCAGGGGGCCACAGCAGAAGCGUUCACGUAGCAGCGCCUGUCAGAUUCUGGUGAAUCUGCGAAUACUGCUGUAUAUCUC [A3G C32A C38G U67A]: 0.29.
Next, UAGCAGGGGGCCACAGCAGAAGCGUUCACGUCGGAGCCCCUGUCAGAUUCUGGUGAAUCUGCGAGUUCUGCUGUAUAUCUC [A3G C34G A65G]: 0.32.
As for UAGCAUGGGGCCACUGCAGAAGCGUUCACGUCGCAGCCCCUGUCAGAUUCUGUUGAACCUGCGAAUUCCGCUGUAUAUCUC [A3G G6U A15U G53U U58C U69C], the self-cleavage stood at 0.11.
Next, UAGCAAGGGGCUACAGCAGAAGCGUUCACGUCGCAGCCCCUGUCAGAUUCUGGUGAAUCAGCGAAUUCUGCUGUACAUCUC [A3G G6A C12U U60A U76C]: 0.04.
For UAGCAAGGGGCCACAGCAGAACCGUUCACGUCGCAGCCCCUGUCAGAUUCUGGUCAAUCUGCGAAUUCUGCUGUAUACCCC [A3G G6A G22C G55C U78C U80C], the self-cleavage was determined as 0.05.
Next, UAGCAGGGGGCCACAGCAGAAGCGUUCACGUCGCAGCACCUGUCAGAUAAUGGUGAAUCUGCGAAUUCAGCUGUAUAUCUC [A3G C38A U49A C50A U69A]: 0.16; UAGCAGGGGGCCACAGCAGAAGCGUUCACGUCGCAGCCUCCGUCAGAUUCUGGUGAUUCUGCGAAUUCUGCUGUAUAUCUC [A3G C39U U41C A57U]: 0.33.
Next, UAGCAGGGGGCCACAGCAGAAGCGUUCACGUCGCAGCCGCUGUCAGAUUCAGGUGAAUCUGCGAAUCCUGCUGUAUAUCUC [A3G C39G U51A U67C]: 0.08.
Next, UAGCAGAGGGCCACAGCAGAAGCGUUCGCGUCGCAGCCCCUGUCUGAUUCUGGUGAAUCAGCAAAUUCUGCUGUACAUCUC [A3G G7A A28G A45U U60A G63A U76C]: 0.07.
Turning to UAGCAGGGGGCCACAGCAGAAGCGUUCACGUGGCAGCCCCUGUCAGAUUCUGGCGAAUAUGCGAAUUCUGCUGUAUAUCUC [A3G C32G U54C C59A], the self-cleavage amounted to 0.16.
Next, UAGCAGCGGGCCACAGCGGAAGCGUUCUCGUAGCAGCCCCUGCCAGAUUCUGGCGAAUCUGCGAAUUCUGCUGUAUAUCUC [A3G G7C A18G A28U C32A U43C U54C]: 0.09.
Next, UAGCAGCGGGCCACUGCAGAAGCGUUCACGUCGCAGCCCCUGUCUGAUUCUGGUGAAUCUGCGAAUUCUGCUGUAUGUCUC [A3G G7C A15U A45U A77G]: 0.1; UAGCAAGGGGCCACUGCAGAAGCGUUCACGUCGCAGCACCUGUCAGGUUCUGGUGAAUCUGCGAAUUCUGCUGUAUAUCUC [A3G G6A A15U C38A A47G]: 0.12; UAGCAAGGGGCCACAGCAGACGCGUUCACGUCGCGGCCCCUGUCAGAUUCUGGUGAAUCUGCGAAUUCUGCUGAAUAUCUC [A3G G6A A21C A35G U74A]: 0.05.
Next, UAGCAGGGGGCCACAGCAGAAGCGUUCACGUCGCAGCUCCUGUCAGAUUCUGGUGAGUCUGCGAAUCCUGCUGUAUAUCUC [A3G C38U A57G U67C]: 0.06; UAGCAUGGGGCCACAGCAGAAGCGUUCACGUCGCAGCCCCUGUCAGAUUCUGGUGAAUCUGCGAAUUCUGCUGUAAAUCCC [A3G G6U U76A U80C]: 0.19; UAGCAGGGGGCCACAGCAGAAGCGUUCACGUCGCAGCCCUUGUCAGAUUCUGGUGAAUCUGCGAAUUCUGCAGUAUAUCUC [A3G C40U U72A]: 0.57.
Consider UAGCAGAGGGCCACAGCAGAAGCGCUCACGUCGCAGCCCCUGUCGGAUUCUGGUGAAUCUGCGAAUUCUGCUGUAUAUCUC [A3G G7A U25C A45G], for which the self-cleavage was 0.07.
Next, UAGCAGGGGGCCACAGCAGAAGCGUUCACGUAGCAGCCCCUGUCGGAUUCUGGUGAAUCUGCGAAUUCUGCUGUAUAUCUC [A3G C32A A45G]: 0.2; UAGCAGGGGGCCACAGCAGAAGCGUUCACGUCGCAGCCUCUGUCAGGUUCUGGUGAAUCUGCGAAUUCUGCUGUAUAUCCC [A3G C39U A47G U80C]: 0.54; UAGCAAGGGGCCACAGCAGAAGCGUUCACGUCGCAGCCCCAGUCAGAUUCUGGUGAAUCCGCGAAUUCUGCUGUAUAUCUC [A3G G6A U41A U60C]: 0.06.
Next, UAGCAGGGGGCCACAGCAGAAGCGUUCACGUUGCUGCCUCUGUCAGACUCUGGUGAAUCUGCGAAUUCAGCUGUAUAUCUC [A3G C32U A35U C39U U48C U69A]: 0.09.
Next, UAGCAGGGGGCCACAGCAGAAGCGUUCACGUUGCAGCCCCUGUCAGAUACUGGUGAACCUGCGAAUUCUGCUGUAUAUCUC [A3G C32U U49A U58C]: 0.15; UAGCAGAGGGCCACAGCAGAGGCGUUCACGCCGCAGCCCCUGACAGAUUCUGGUGAAUCUGCGGAUUCUGCUGAAUAUCUC [A3G G7A A21G U31C U43A A64G U74A]: 0.02.
As to UAGCAGGGGGCCACAGCAGAAGCGUUCACGUCGCAGCCUCUGUCGGAUUCUGGUGAAUCUGCGAAUUCUGCUGUAUAUCUC [A3G C39U A45G], the self-cleavage was 0.56.
Next, UAGCAGAGGGCCACAGCAGAAGCGUUCACGUCGCAGCCCCUGUCAGAUUCUGGUGAAUCUGCGAAUUCUGCUGUAUACCUC [A3G G7A U78C]: 0.31; UAGCAGGGGGCCACAGCAGAAGCGUUCACGUCGGAGCCCCUGUCAGAUUCUGGUUAAUCUGCGAAUUCUGCUGUAUAUCUC [A3G C34G G55U]: 0.47; UAGCAUGGGGCCUCAGCAGAGGCGUUCACGUCGCAGCCCCUGCCAGAUUCUGGUGAAUCCGCGAAUUCUGCUGUAUAUCUC [A3G G6U A13U A21G U43C U60C]: 0.35.
Next, UAGCAGGGGGCCACAGCAGAAGCGUUCACGUCGCAGCUCCUGUCAGAUUCUGGCGAAUCUGCGAAUUCUGCUGUAUACUUC [A3G C38U U54C U78C C79U]: 0.89; UAGCAGGGGGCCACAGCAGAAGCGUUCACGUCGCAGCCCAUGUCAGACUCUGGUGAAUCUGCGAAUCCUGCUGUAUAUCUC [A3G C40A U48C U67C]: 0.21; UAGCAGGGGGCCACAGCAGAAGCGUUCACGUCGCAGACCCAGUCAGAUUCAGGUGAAUCUGCGAAUUCUGCCGUAUAUCUC [A3G C37A U41A U51A U72C]: 0.07.

The record behind these values is the RNAGym collection of RNA variant scans (doi:10.1093/nar/gkz1192).
